This note sets out measurements from publication PMC4538830.

No constants are given. Whether binding was seen depends on the method and setting. For some assays here: Binding seen in cells or lysates may run through a third protein. Some entries that bind do so weakly or less than the wild type. For some assays here: Sequences can lack the tags named with a protein.

The target of one assay is CWC15[80–229] (human) (UniProt Q9P013). Briefly: SEC-MALS; mixture of purified His-CTNNBL1[77–563], CDC5L[1–195] and CWC15[80–229]; both purified. (In gel filtration, larger molecules generally elute earlier.)
Assay [1] addresses His-CTNNBL1[77–563] (human) (UniProt Q8WYA6). As to the kind of experiment: SEC-MALS; CTNNBL1 (full length or [77–563]) alone; also in high salt buffer (0.5 M NaCl) or with CWC15[80–229] added; Supplementary Figure S7; both purified.
Assay [2] addresses T1, full-length recombinant His tagged CTNNBL1 (human) (UniProt Q8WYA6).
T1 sequence: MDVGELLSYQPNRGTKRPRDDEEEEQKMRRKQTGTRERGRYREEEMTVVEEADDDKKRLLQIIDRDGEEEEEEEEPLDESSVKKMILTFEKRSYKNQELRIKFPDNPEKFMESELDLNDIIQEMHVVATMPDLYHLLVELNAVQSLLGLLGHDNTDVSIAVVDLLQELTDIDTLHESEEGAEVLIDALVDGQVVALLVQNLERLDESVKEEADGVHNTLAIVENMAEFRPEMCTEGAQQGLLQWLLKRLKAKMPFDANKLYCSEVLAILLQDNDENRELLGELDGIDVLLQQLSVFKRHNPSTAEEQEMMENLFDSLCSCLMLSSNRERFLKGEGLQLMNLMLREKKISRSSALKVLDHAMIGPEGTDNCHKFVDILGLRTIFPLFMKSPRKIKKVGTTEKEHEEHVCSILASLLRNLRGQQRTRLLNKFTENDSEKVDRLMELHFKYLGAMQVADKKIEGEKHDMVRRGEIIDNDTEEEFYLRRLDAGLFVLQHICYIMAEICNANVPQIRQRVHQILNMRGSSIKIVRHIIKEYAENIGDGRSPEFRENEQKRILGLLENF
As to the kind of experiment: pull-down; His-CTNNBL1 (full length or [77–563]) as bait on Ni-NTA resin; 10–20 μg of each purified protein in pull down buffer, 1 h at 4°C; eluates on SDS-PAGE, Instant Blue; both purified.

In assay [3] the target is T1, full-length recombinant His tagged CTNNBL1 (human). Briefly: SEC-MALS; CTNNBL1 (full length or [77–563]) alone; also in high salt buffer (0.5 M NaCl) or with CWC15[80–229] added; Supplementary Figure S7; both purified.
For the next assay, the target named is T2, human HA-CWC15 (human) (UniProt Q9P013).
T2 sequence: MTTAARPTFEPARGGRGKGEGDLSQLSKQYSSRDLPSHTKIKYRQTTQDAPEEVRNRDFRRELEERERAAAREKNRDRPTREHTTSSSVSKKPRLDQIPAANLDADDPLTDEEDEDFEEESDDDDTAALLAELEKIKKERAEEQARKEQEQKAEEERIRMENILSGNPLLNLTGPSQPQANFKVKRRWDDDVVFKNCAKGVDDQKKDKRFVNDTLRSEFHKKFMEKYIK
As to the kind of experiment: co-IP; anti-HA resin, 1 h at 4°C, triton lysis buffer with benzonase; lysates of LPS and IL-4 stimulated mouse B cells transduced with human HA-CWC15; control (Ctnnbl1+/flx) and CTNNBL1-deficient (Ctnnbl1−/flx) cells; western blot. For orientation: Immunoblotting shows a protein as a band on a membrane.

B1: CWC15[80–229] (domain or fragment, UniProt Q9P013 80-229)
chain: TREHTTSSSVSKKPRLDQIPAANLDADDPLTDEEDEDFEEESDDDDTAALLAELEKIKKERAEEQARKEQEQKAEEERIRMENILSGNPLLNLTGPSQPQANFKVKRRWDDDVVFKNCAKGVDDQKKDKRFVNDTLRSEFHKKFMEKYIK
Regarding B1, in the assay with CWC15[80–229] (human), the binding entry is “no binding”.

B2: His-CTNNBL1[77–563] (domain or fragment, UniProt Q8WYA6 77-563)
chain: LDESSVKKMILTFEKRSYKNQELRIKFPDNPEKFMESELDLNDIIQEMHVVATMPDLYHLLVELNAVQSLLGLLGHDNTDVSIAVVDLLQELTDIDTLHESEEGAEVLIDALVDGQVVALLVQNLERLDESVKEEADGVHNTLAIVENMAEFRPEMCTEGAQQGLLQWLLKRLKAKMPFDANKLYCSEVLAILLQDNDENRELLGELDGIDVLLQQLSVFKRHNPSTAEEQEMMENLFDSLCSCLMLSSNRERFLKGEGLQLMNLMLREKKISRSSALKVLDHAMIGPEGTDNCHKFVDILGLRTIFPLFMKSPRKIKKVGTTEKEHEEHVCSILASLLRNLRGQQRTRLLNKFTENDSEKVDRLMELHFKYLGAMQVADKKIEGEKHDMVRRGEIIDNDTEEEFYLRRLDAGLFVLQHICYIMAEICNANVPQIRQRVHQILNMRGSSIKIVRHIIKEYAENIGDGRSPEFRENEQKRILGLLENF
For the molecule B2, the binding result in assay [1] is on record as “no binding (condition: high salt buffer (0.5 M NaCl))”.

B3: GST tagged CWC15[1–79] fragment (domain or fragment, UniProt Q9P013 1-79)
chain: MTTAARPTFEPARGGRGKGEGDLSQLSKQYSSRDLPSHTKIKYRQTTQDAPEEVRNRDFRRELEERERAAAREKNRDRP
In the case of B3, the binding result in assay [2] was “no binding”.

B4: full-length recombinant His tagged CTNNBL1 (protein, UniProt Q8WYA6 1-563)
chain: T1 sequence
In the case of B4, the binding result in assay [3] is “no binding (condition: high salt buffer (0.5 M NaCl))”.

B5: CTNNBL1 (endogenous, mouse B cells) (protein, UniProt Q9CWL8 1-563)
chain: MDVGELLSYQPNRGTKRPRDDEEEELKTRRKQTGPRERGRYREEEATAAEDTADDKKRLLQIIDRDGEEEEEEEEPLDESSVKKMILTFEKRSYKNQELRIKFPDNPEKFMESELDLNDIIQEMHVVATMPDLYHLLVELSAVQSLLGLLGHDNTDVSIAVVDLLQELTDIDTLHESEEGAEVLIDALVDGQVAALLVQNLERLDESVREEADGVHNTLAIVENMAEFRPEMCTEAAQQGLLQWLLKRLKAKMPFDANKLYCSEVLAILLQDNDENRELLGELDGIDVLLQQLSVFKRHNPSTAEEQEMMENLFDALCSCLMLSSNRERFLKGEGLQLMNLMLREKKVSRSSALKVLDHAMIGPEGTDNCHKFVDILGLRTIFPLFMKSPRKIKKVGTTEKEHEEHVCSILASLLRNLRGQQRTRLLNKFTENDSEKVDRLMELHFKYLSAMQVADKKIEGEKHDIVRRGEIIDNDMEDEFYLRRLDAGLFILQHICYIMAEICNANVPQIRQRVHQILNMRGSSIKIVRHIIKEYAENIGDGRSPEFRETEQKRILALLENF
As to B5, the binding entry with human HA-CWC15 (human) was “binds”.
